Test results from patent US12551573B2, “Compositions and methods for the targeting of PCSK9” (Scribe Therapeutics Inc., priority 2022, dated 2026).

Test system: HBEGF locus
Type: cell-based, human
Conditions: high-throughput screen of dXR repression of the HBEGF gene; change in abundance of each domain in the library before and after diphtheria toxin selection

Molecule | Log2 (fold change)
DOMAIN_5518 (protein, listed as Aotus trivirgatus) MATALTDPAQVSVTFDDVAVTFTQEEWGQLDLAQRTLYQEVMLENCGLLVSLGCPVPRPELIYHLEHGQEPWTRKEDLSQG | 2.8542
DOMAIN_4687 (protein, listed as Callithrix sp.) MPGPPGSLEMDPLTFRDVAIEFSLEEWQCLDTAQQNLYRNVMLENYKNLAFLGIAVSKPDLITRLEKEKEPWKMKRHRMVD | 5.2288
DOMAIN_5527 (protein, listed as Aotus trivirgatus) MNVEVLKVISQDLVTFKDVAIDFSQEEWQWMNPAQKRLYRSMMLENYQSLVSLGLCVSKPYVISLLEQGREPWEMTSEMTR | 3.1092
DOMAIN_5716 (protein, listed as Aotus trivirgatus) MDVAQEQVTFQDVAIYFSWEEWECLEPSQRALYRDVMLDNFSNVAALGFCSPRPDLVSRLEQWEEPWVEDRDRPELQAVQR | 3.0606
DOMAIN_5742 (protein, listed as Homo sapiens) CQELVTFEDVAVYFSLEEWERLEADQRGLYQEVMQENYGILVSLGYPIPKPDLIFRLEQGEEPWVPDSPRPEEGDIVTGVY | 2.8617
DOMAIN_5765 (protein, listed as Rattus norvegicus) SKAPVTFGDLAIYFSQEEWEWLSPNQKDLYEDVMLENYHNLVSVGLACRRPNIIALLEKGKAPWMVEPSRKRRGPELGSKD | 4.2973
DOMAIN_5774 (protein, listed as Homo sapiens) YQEMVTFEDVAVHFTKTEWTGLSPAQRALYRSVMLENFGNLTALGYPVPKPALISLLERGDMAWGLEAQDDPPAERTKNVC | 2.9608
DOMAIN_5782 (protein, listed as Homo sapiens) YQIPVSFKDVVVGFTQEEWHRLSPAQRALYRDVMLETYSNLVSVGYEGTKPDVILRLEQEEAPWIGEAACPGCHCWEDIWR | 2.9086
DOMAIN_5792 (protein, listed as Homo sapiens) EMGLLTFRDIAIEFSLEEWQCLDCAQRNLYRDVMLENYRNLVSLGIAVSKPDLITCLEQNKESQNIKRNEMVAKHPVTRSH | 3.0218
DOMAIN_5822 (protein, listed as Homo sapiens) AQESVTFEDVAVNFTNREWQCLTYAQRHLYKDVMLENYGNMVSLGFPFPKPPLISHLEREVDPCVQDPQDRESLSCSYPVS | 2.9335
DOMAIN_5843 (protein, listed as Homo sapiens) VQEPVTFKDVAVDFTQEEWGQLDLVQRTLYRDVMLETYGHLLSVGNQIAKPEVISLLEQGEEPWSVEQACPQRTCPEWVRN | 3.1821
DOMAIN_5866 (protein, listed as Homo sapiens) SQASVSFKDVTIEFTQEEWQQMAPVQKNLYRDVMLENYSNLVSVGYCCFKPEVIFKLEQGEEPWFSEEEFSNQSHPKDYRG | 2.6362
DOMAIN_5896 (protein, listed as Bos taurus) HQEVVTFEDVAVYFTRTEWAGLSPAQRALYRSVMLEIYRSLTSLGYPVPKPALISLLERGDLPVGLETQDNPPAQGTRDIY | 2.9429
DOMAIN_5901 (protein, listed as Homo sapiens) SKAPITFGDLAIYFSQEEWEWLSPIQKDLYEDVMLENYRNLVSLGLSFRRPNVITLLEKGKAPWMVEPVRRRRAPDSGSKC | 3.2935
DOMAIN_5914 (protein, listed as Homo sapiens) ALRSVMFSDVSIDFSPEEWEYLDLEQKDLYRDVMLENYSNLVSLGCFISKPDVISSLEQGKEPWKVVRKGRRQYPDLETKY | 2.5527
DOMAIN_5921 (protein, listed as Homo sapiens) SWGPLSFMDVFVDFTWEEWQLLDPAQKCLYRSVMLENYSNLVSLGYQHTKPDIIFKLEQGEELCMVQAQVPNQTCPNTVWK | 2.4715
DOMAIN_5943 (protein, listed as Mus musculus) SLGPLSFKDVAVAFSQEEWQQLDPEERTTYRDVMLETYSNLVSVGYDIIKPDVIIKLEQGEEPWIVEGAFSPQSYPDEIRH | 2.501
DOMAIN_4968 (protein, listed as Callithrix sp.) RALTPVSMTAEAKCTGFTQGSVTFEDVAIYFSQEEWGLLDEAQRLLYRDVMLENFALLTSLVCWHGMEDEETPEQSVSVNG | 3.0315
DOMAIN_5968 (protein, listed as Bos taurus) QAEVTFEDVAVFLSQEEWGLLGPAQKGLYREVMLETYRNLVSLGAGLAGPKPEVIAQLEQGDELWVLDMHGAEQPSVDGSA | 3.2856

Molecule | Log2 (fold change)
DOMAIN_5989 (protein, listed as Mus musculus) SKAPVTFGDLAIYFSQEEWEWLSPMQKDLYEDVMLENYHNLVSVGLACRRPNIIALLEKGKAPWVIEPSRRRWGPESGSKY | 3.6632
DOMAIN_5994 (protein, listed as Pongo sp.) RQEPVTFEDVAVYFTQNEWASLDSVQRALYREVMLENYANVASLAFPFTTPVLVSQLEQGELPWGLDPWEPMGREALRGIC | 2.9214
DOMAIN_6038 (protein, listed as Homo sapiens) SLGSELFRDVAIVFSQEEWQWLAPAQRDLYRDVMLETYSNLVSLGLAVSKPDVISFLEQGKEPWMVERVVSGGLCPVLESR | 3.3315
DOMAIN_6053 (protein, listed as Pongo sp.) MVTFEDVAVHFTKTEWTGLSPAQRALYRSVMLENFGNLTALGYPVPKPALISLLEGGDMAWGLEAQDDPPAETTKNVRKDV | 3.2566
DOMAIN_6063 (protein, listed as Homo sapiens) KPGTVSFADVAVYFSPEEWGCLRPAQRALYRDVMQETYGHLGALGFPGPKPALISWMEQESEAWSPAAQDPEKGERLGGAR | 3.5653
DOMAIN_6078 (protein, listed as Homo sapiens) QAEVTFEDVAVYLSREEWGRLGPAQRGLYRDVMLETYGNLVSLGVGPAGPKPGVISQLERGDEPWVLDVQGTSGKEHLRVN | 2.6246
DOMAIN_6134 (protein, listed as Homo sapiens) ARGKSKSKAPITFGDLAIYFSQEEWEWLSPIQKDLYEDVMLENYRNLVSLGLSFRRPNVITLLEKGKAPWMVEPVRRRRAP | 2.7081
DOMAIN_6169 (protein, listed as Homo sapiens) SQGLVTFGDVAVDFSQEEWEWLNPIQRNLYRKVMLENYRNLAWLGLCVSKPDVISSLEQGKEPWTVKRKMTRAWCPDLKAV | 3.3909
DOMAIN_6172 (protein, listed as Homo sapiens) SKAPITFGDLAIYFSQEEWEWLSPIQKDLYEDVMLENYRNLVSLGLSFRRPNVITLLEKGKAPWMVEPVRRRRAPELVTVA | 3.883
DOMAIN_6249 (protein, listed as Saimiri boliviensis) VQEPVTFKDVAVDFTQEEWGQLDLVQRTLYRDVMLETYGHLLSVGNQIAKPEVISLLEQGEEPWSLEQTCPQRACPEWMRN | 3.5469
DOMAIN_6293 (protein, listed as Rattus norvegicus) KPELVSFADVAVYFSPQEWGCLRPAQRALYREVMRETYGLLGALGFPGPKPALISWMEQESEAWSPAAQDPEEGESLGGAP | 2.6707
DOMAIN_6354 (protein, listed as Terrapene carolina) PSGLVTFEEVAVYFTREEGALLDPTQRALYRDVMQENYETVVLLGFPVSKPDVISQLERGEEPWVPDLQGSEKEVLPRAAC | 2.4812
DOMAIN_6382 (protein, listed as Gopherus agassizii) LVPVTFEDVAVYFSREEWGLLDDMQRTFYRDVMKENYQTVVSLPGSSIPKPDVISQMERGEEPWVPDLQKLGPHQTPENPL | 3.2875
DOMAIN_6458 (protein, listed as Gopherus agassizii) FQIPVTFEEVAVYFTQGQGALLDPAQRALYRDVMQENYETVTSLGFPIPKPDLIARLERGEEPWVLDLQASDESVSLRGTC | 2.8973
DOMAIN_5290 (protein, listed as Aotus trivirgatus) LAPEDHGSSYEGSVSFRDVAIDFSREEWRHLDLSQRNLYRDVMLETYSHLLSVGYQVPEAEVVMLEQGNEPWSLQGERPHQ | 3.0993
DOMAIN_6482 (protein, listed as Paroedura picta) FSLEDVSVSFSPAEWALLDPAQRALWREVMRENAENVAFLARSIGETLVEANNDPVSEGRLERSSGGAEEQISFPNGLAKR | 3.3106
DOMAIN_6501 (protein, listed as Paroedura picta) AQVAFEDVAVYFTEEQWALLDHSQRALYRDVMQENYETVASLGLPIPGPDSISRLQQREESRIEAQPVLEGNDVSSDDDLG | 3.4172
DOMAIN_6539 (protein, listed as Paroedura picta) AQRPVTFEDVAVYFSEAQGTLLDPDQKALYREVMMENYENVASLGSLTPKPELIIRLERGEEPWVSDPGDAPVSGDFRKSH | 3.2371
DOMAIN_6555 (protein, listed as Paroedura picta) AQAGVSFEEVAVHFSPGEWSLLQPAQRALYKEVMLENFGHVASLGPPGATPDLIAWLQEGLFLLGGDEEAGSAGDAWRSAT | 3.534
